# Measurements from PubChem BioAssay AID686978 (National Center for Advancing Translational Sciences (NCATS), 2013).
# Where “and” joins values, the source holds several entries; their conditions need not be identical. Equal values may be shown once. In all, about 420,000 compounds went through this assay and about 64,000 (15%) were called active. This list was built around the results that the source calls inconclusive (neither active nor inactive); the mix of calls is not that of the screen. The call rests on the fitted dose curve; in most records, active means well fitted inhibition curve with a large enough effect; inconclusive means small, poorly fitted or top-dose-only effect; inactive means flat fitted curve, though single readings scatter. Where the call is inconclusive, the potency comes from a doubtful curve fit.
# Test: qHTS for Inhibitors of human tyrosyl-DNA phosphodiesterase 1 (TDP1): qHTS in cells in absence of CPT; further: nearly all actives have a fitted effect of over 55% in size
# Conditions: DT40 Tdp1-/- hTDP1 cells, no CPT, ATP luminescence, 48 h; activity change, negative = growth inhibition: at 46.2 µM (top of the series) unless noted
# Method in brief: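 Growth of hTDP1-complemented DT40 Tdp1-knockout cells is measured by ATP luminescence after at least 48 hr compound exposure at 37 °C, with DMSO substituting for the 20 nM CPT used in the parallel screen.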
# On the % scale 0 is the no-effect control and ±100 the full control effect; potency means the concentration at half of the fitted maximal effect; tags describe the fitted curve by direction and shape.
SMILES,Potency,"activity change, negative = growth inhibition"
Cc1cccc(C)c1NC(=O)C(c1cc2ccccc2o1)N1CCC(c2ccccc2)CC1 (centres undefined),active: 14.6 µM,–
COc1cccc(N2CCN(C(=O)c3ccccc3SCC(=O)NCc3ccco3)CC2)c1,"inconclusive: 29.1 µM [inhibitor, single point]",–
O=S(=O)(c1ccccc1)C1CC1(c1ccccc1)c1ccccc1 (centres undefined),"inconclusive: 29.1 µM [inhibitor, single point]",–
O=[N+]([O-])c1ccc(COc2cccc(CN3CCCC3)c2)cc1,"inconclusive: 16.4 µM [inhibitor, single point]",–
Cc1oc2cc3oc(=O)c(CCC(=O)NCCCN4CCOCC4)c(C)c3cc2c1C,"inconclusive: 29.1 µM [inhibitor, single point]",–
CCCN1CNc2c(c(=O)[nH]c(=S)n2CCc2cc(C)cc(C)c2)C1,"inconclusive: 22.4 µM [inhibitor, single point]",–
O=C(COC(=O)c1ccccc1F)Nc1cc(S(=O)(=O)N2CCOCC2)ccc1N1CCCC1,inactive,–
CCCNc1cc(=S)nc(N)[nH]1,"inconclusive: 29.1 µM [inhibitor, single point]",–
COCCNC(=O)c1c(N)n(-c2cccc(C)c2)c2nc3ccccc3nc12,"inconclusive: 20.6 µM [inhibitor, single point]",–
O=C(NCCCn1ccnc1)c1nn2c(C(F)(F)F)cc(-c3ccc(Br)cc3)nc2c1Cl,active: 16.4 µM,–
CCC(CC)c1nnc(NC(=O)c2ccc(N3CCCCC3)c([N+](=O)[O-])c2)s1,"inconclusive: 29.1 µM [inhibitor, single point]",–
O=C(CSc1nc(O)c(C(c2ccccc2)c2ccccc2)c(=O)[nH]1)N1CCOCC1,"inconclusive: 29.1 µM [inhibitor, partial curve, poor fit]",–
O=C(COC(=O)COc1ccc(Cl)cc1Cl)NC1CCS(=O)(=O)C1 (centres undefined),inactive,–
Cc1cccc(OCC(=O)Nc2cc(-c3nc4cc(Cl)ccc4o3)ccc2C)c1,"inconclusive: 35.5 µM [inhibitor, single point]",–
O=C(Nc1ccccc1C(=O)NC(Cc1ccccc1)C(=O)NC1CCCCC1)c1ccccc1 (centres undefined),active: 25.9 µM,–
COc1ccc(OC)c(C(O)c2ncc(-c3ccccc3OC)[nH]2)c1 (centres undefined),"inconclusive: 25.9 µM [inhibitor, partial curve, poor fit]",–
COC(=O)c1c(C)sc(-c2c(-c3cccc(Cl)c3)[nH]c3c2c(=O)[nH]c(=O)n3C)c1O,"inconclusive: 3.66 µM [inhibitor, partial curve, poor fit]",–
C[C@H]1CN([C@@H](C)CO)C(=O)Cc2cc(NC(=O)CCC(F)(F)F)ccc2O[C@H]1CN(C)S(=O)(=O)c1ccc(Cl)cc1,"inconclusive: 2.59 µM [inhibitor, full curve]",–
COc1ccc(NC(=S)Nc2ccc3nsnc3c2)cc1,active: 18.4 µM,–
COc1ccc(OC)c2c1cc(C(=O)N[C@@H](Cc1ccccc1)C(=O)O)n2C,inactive,–
COc1ccccc1NC(=O)COc1ccc(/C=N/NS(=O)(=O)c2ccc(C)cc2)cc1,"inconclusive: 29.1 µM [inhibitor, single point]",–
O=C(NCCc1ccccc1)/C(=C\c1ccc([N+](=O)[O-])cc1)NC(=O)c1ccco1,–,inconclusive: -34.9% [inhibitor]
Cc1nc2ccccn2c1C(=O)C(=O)Nc1cc(F)ccc1F,"inconclusive: 14.6 µM [inhibitor, partial curve, poor fit]",–

SMILES,Potency,"activity change, negative = growth inhibition"
COc1cc(OC)c(C(=O)Nc2ccncc2)cc1OC,inactive,–
CCCCOc1ccc(C(=O)Nc2cc(C)c(OCC(=O)N3CCOCC3)c(C)c2)cc1,"inconclusive: 18.4 µM [inhibitor, single point]",–
c1ccc(N2CCN(Cc3ccnc4ccccc34)CC2)cc1,active: 20.6 µM,–
COc1ccc(C2NC(=O)c3n[nH]c(C)c32)c(OC)c1 (centres undefined),inactive,–
COc1ccc2nc(NC(=O)C3CCN(C(=O)c4ccc(F)cc4)CC3)sc2c1,"inconclusive: 29.1 µM [inhibitor, single point]",–
COc1ccc(NC(=O)CSc2nnc3ccc(-c4ccccn4)nn23)cc1,inactive,–
COc1ccccc1NC(=S)NCc1ccc2c(c1)cc(C)n2C,active: 23.1 µM,–
CCc1cccc(C)c1NC(=O)C(C)Sc1nc2c(c(=O)[nH]1)CCCC2 (centres undefined),"inconclusive: 20.6 µM [inhibitor, partial curve, poor fit]",–
COc1ccccc1N1CCN(C(=O)c2cc3c(s2)CCC3)CC1,active: 29.1 µM,–
COc1ccc(CCNC(=O)CCc2c(C)nc3c(c(C)nn3-c3ccccc3)c2C)c(OC)c1,active: 16.4 µM,–
COc1ccccc1NC(=O)CSc1nnc(CCNC(=O)c2ccc(C)cc2)n1C,"inconclusive: 29.1 µM [inhibitor, single point]",–
COc1ccc(-c2csc(NC(=O)CC(NC(C)=O)c3ccccc3)n2)cc1OC (centres undefined),"inconclusive: 29.1 µM [inhibitor, single point]",–
c1ccc2c(c1)OCC(c1nn3c(Cn4nnc5ccccc54)nnc3s1)O2 (centres undefined),"inconclusive: 29.1 µM [inhibitor, single point]",–
CC(=O)c1ccc(N2CCN(C(=O)CCCn3c(=O)[nH]c4ccc(Br)cc4c3=O)CC2)cc1,active: 13 µM,–
COc1ccccc1N1CCN(C(=O)C2CC=CCC2C(=O)O)CC1 (centres undefined),inactive,–
CCCNC(=O)CCC(=O)N1Cc2ccccc2Oc2ncccc21,inactive,–
O=C(Nc1ccccc1O)c1ccc(C(=O)c2ccccc2)o1,"inconclusive: 23.1 µM [inhibitor, partial curve]",–
Cc1ccc(C(=O)NNC(=S)NCC2CCCO2)cc1[N+](=O)[O-] (centres undefined),"inconclusive: 16.4 µM [inhibitor, single point]",–
O=C1C(=O)N(CCN2CCOCC2)C(c2ccc(Cl)cc2)/C1=C(/O)c1ccc(S(=O)(=O)N2CCOCC2)cc1 (centres undefined),inactive,–
Cc1nnc2sc(-c3ccc(N(C)C)cc3)nn2c1=O,"inconclusive: 8.2 µM [inhibitor, partial curve]",–
Cc1cccc(N2C(=O)/C(=C/c3ccccn3)SC2=S)c1,"inconclusive: 29.1 µM [inhibitor, single point]",–
COc1cc(CNCCc2ccccc2)ccc1OCc1ccc(Cl)nc1,"inconclusive: 16.4 µM [inhibitor, single point]",–
C=C(C)Cn1c(C2CC(=O)N(Cc3ccccc3)C2)nc2ccccc21 (centres undefined),"inconclusive: 29.1 µM [inhibitor, single point]",–

SMILES,Potency,"activity change, negative = growth inhibition"
O=C(Cc1n[nH]c(=O)c2ccccc12)OCC(=O)c1ccc(F)cc1,inactive,–
Nc1nc(=S)c2n[nH]nc2[nH]1,"inconclusive: 22.4 µM [inhibitor, single point] and inconclusive: 25.1 µM [inhibitor, single point]",–
COc1ccc(C(=O)CN2C(=O)N(c3cc(C)ccc3C)S(=O)(=O)c3ccccc32)cc1,inactive,–
Cc1nc2ccc(Br)cc2c2c1CC(CO)O2 (centres undefined),inactive,–
COc1ccc(-c2csc(Nc3ncccc3C)n2)cc1,"inconclusive: 25.9 µM [inhibitor, single point]",–
CC(C)CC(=O)NC1(C(F)(F)F)C(=O)N(CC(C)C)C2=C1C(=O)CC(C)(C)C2 (centres undefined),inactive,–
Cn1c2ccc(F)cc2c2ncn(CCCN(CCO)CCO)c(=O)c21,inactive,–
CCCN1CNc2c(c(=O)[nH]c(=S)n2CCc2ccccc2OC)C1,"inconclusive: 14.1 µM [inhibitor, single point]",–
O=C(NNc1cccc(Cl)n1)c1ccccc1CC[N+](=O)[O-],"inconclusive: 20.6 µM [inhibitor, single point]",–
Cc1ccc(-n2ncc(C(=O)NCC3CCN(C4CCCC4)C3)c2C2CCN(C(=O)OC(C)(C)C)CC2)cc1 (centres undefined),"inconclusive: 23.1 µM [inhibitor, single point]",–
CCc1ccccc1NC(=O)C1CCN(C2=NS(=O)(=O)C(c3ccc(C)c(C)c3)=C2C)CC1,"inconclusive: 10.3 µM [inhibitor, single point]",–
Cn1c(=O)c(-c2cc(F)cc(F)c2)nc2cnc(Oc3ccccc3)nc21,"inconclusive: 25.9 µM [inhibitor, single point]",–
NC(=O)c1ccccc1NC(=O)Nc1cccc2ccccc12,active: 4.61 µM,–
Cc1cnc(NC(=O)Cc2cccs2)s1,"inconclusive: 20.6 µM [inhibitor, single point]",–
CCN(C1CCCCC1)S(=O)(=O)c1ccc(-n2cnnn2)c(C)c1,inactive,–
NC(Cc1ccc(Cl)cc1)c1csc(Nc2cc(NCCCO)ncn2)n1 (centres undefined),active: 14.6 µM,–
COc1ccccc1NS(=O)(=O)c1cc(N=N/C(C(=O)Nc2ccc(Cl)cc2)=C(/C)O)ccc1C,inactive,–
O=C(COc1ccc(Cl)cc1)N1CCN(c2cccc(C(F)(F)F)c2)CC1,active: 20.6 µM,–
Cc1cccc(CSCC(=O)N2CCN(S(=O)(=O)c3ccccc3C#N)CC2)c1,"inconclusive: 29.1 µM [inhibitor, single point]",–
O=C(c1cc(Br)ccc1Cl)N1CCN(c2ncccn2)CC1,–,inconclusive: -32.6% [inhibitor]
CCOC(=O)C1=C(C)NC2=C(C(=O)CC(C)(C)C2)C1c1ccsc1 (centres undefined),"inconclusive: 35.5 µM [inhibitor, single point]",–
CCOC(=O)c1c(C)oc2nc(C)nc(NC(C)c3ccccc3)c12 (centres undefined),active: 16.4 µM,–
CC(C)c1ccc(-c2csc(NC(=O)c3cccs3)c2C(=O)O)cc1,"inconclusive: 16.4 µM [inhibitor, partial curve]",–
